In all, about 410,000 compounds went through this assay and about 530 (0.13%) were called active. The inconclusive results got no clear call from the source; some entries with a clear call stand among them for comparison. Calls come from the whole dose curve; as a rule, active = well fitted inhibition curve with a large enough effect; inconclusive = small, poorly fitted or top-dose-only effect, or another doubt; inactive = no such curve, though single readings can be large or run the other way. Potencies beside an inconclusive call are fits to weak or partial responses and may not hold up.
assay: qHTS of GLP-1 Receptor Inverse Agonists: Cytotox Screen; settings: HEK293 cAMP-luciferase reporter cells, luminescence, 24 h; series mostly up to 38.3 µM
Method in brief: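 To flag toxic compounds, the library was rerun on cells for 24 hr at 37 deg C and 5% CO2. Viability-linked luminescence was captured 12 min after adding luciferase detection reagent.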
Potency is the fitted concentration of half-maximal effect.

Which Potency does the source give for `CCC(=O)NC(c1cccs1)c1cc([N+](=O)[O-])c2cccnc2c1O` (stereo not drawn) here?
Its Potency is inconclusive: 12.6 µM [inhibitor, single point].

With `COc1ccccc1CCNC(=O)c1cccc(NC(=O)CC2SC(N3CCCCC3)=NC2=O)c1` (stereo not drawn) as the compound, how does the Potency read?
The Potency was “inactive”.

For `CC(Sc1ncnc2sccc12)C(=O)Nc1ccc(S(=O)(=O)N2CCOCC2)cc1` (stereo not drawn), which Potency is on record?
The Potency was “inactive”.

For `O=C(/C=C/c1ccccc1)N1CCOCC1`, which Potency is on record?
The Potency was inconclusive: 14.1 µM [inhibitor, single point].

With `CCc1ccc(N2C(=O)C(Cl)=C(N3CCOCC3)C2=O)cc1` as the compound, how does the Potency read?
Its Potency is “inactive”.

Which Potency does the source give for `CN(C)c1ccc(-n2cccc2/C=C/[N+](=O)[O-])cc1` here?
The Potency was inconclusive: 11.2 µM [inhibitor, partial curve, poor fit].

Which Potency does the source give for `Cc1ccc2c(c1)C1CN(C)CCC1N2S(=O)(=O)c1ccc(Oc2ccc([N+](=O)[O-])cc2)cc1` (stereo not drawn) here?
The Potency was inconclusive: 11.2 µM [inhibitor, partial curve, poor fit].

With `COCCNC(=S)Nc1cc2oc3ccccc3c2cc1OC` as the compound, how does the Potency read?
The Potency was inconclusive: 11.2 µM [inhibitor, single point].

With `CC1CCCCN1CCCNC(=O)Cn1ncc2c3ccccc3n(Cc3ccccc3)c2c1=O` (stereo not drawn) as the compound, how does the Potency read?
Its Potency is “inactive”.

Which Potency does the source give for `CC1CCN(CCCn2c(SCC(=O)Nc3ccccc3Cl)nc3ccccc3c2=O)CC1` here?
The Potency was inconclusive: 7.94 µM [inhibitor, partial curve, poor fit].

For `Cc1ccc(NC(=O)CSc2nc3n[nH]c(C)c3c(=N)n2-c2ccccc2C)cc1C`, which Potency is on record?
Its Potency is inconclusive: 22.4 µM [inhibitor, single point].

Which Potency does the source give for `CCCN1CCN(C(=S)Nc2sc(CC)cc2C(=O)OC)CC1` here?
The Potency was “inactive”.

With `COc1ccccc1NC(=O)CSc1nnc(Cc2cccn2C)n1-c1ccc(F)cc1` as the compound, how does the Potency read?
Its Potency is inconclusive: 31.6 µM [inhibitor, single point].

Which Potency does the source give for `CCNC(=S)N=Nc1c(O)[nH]c2ccc([N+](=O)[O-])cc12` here?
Its Potency is inconclusive: 1.58 µM [inhibitor, full curve, poor fit].

With `CCN1C(=O)C(=Cc2cccc(OC)c2Oc2ccc([N+](=O)[O-])cc2[N+](=O)[O-])SC1=S` as the compound, how does the Potency read?
Its Potency is inconclusive: 5.01 µM [inhibitor, full curve].

For `c1ccc(-c2nc3cc4ccccc4cc3[nH]2)nc1`, which Potency is on record?
The Potency was inconclusive: 6.31 µM [inhibitor, full curve, poor fit].

Which Potency does the source give for `O=C(/C=C/c1ccc(Cl)cc1Cl)N1CCN(c2ccc([N+](=O)[O-])c(N3CCOCC3)c2)CC1` here?
Its Potency is inconclusive: 3.16 µM [inhibitor, partial curve, poor fit].

With `COc1cccc(/C=N/Nc2cc(-n3nc(C)cc3-c3ccccc3)ncn2)c1O` as the compound, how does the Potency read?
Its Potency is active: 2.24 µM.

Which Potency does the source give for `O=C1NN=C(c2ccc(Cl)cc2)CC1c1cccc(Cl)c1` (stereo not drawn) here?
The Potency was “inactive”.

For `CCN(C(=O)c1cc(S(=O)(=O)N2CCc3ccccc32)cn1C)c1cccc(C)c1`, which Potency is on record?
The Potency was “inactive”.

For `CCCCn1c(N)c(N(CCC(C)C)C(=O)COC(=O)Cc2ccc(Cl)cc2)c(=O)[nH]c1=O`, which Potency is on record?
The Potency was inconclusive: 28.2 µM [inhibitor, single point].

With `O=C(CSC1=NCCN1)NC12CC3CC(CC(C3)C1)C2` as the compound, how does the Potency read?
The Potency was inconclusive: 10 µM [inhibitor, single point].

With `O=C(/C=C/c1ccc(O)c(O)c1)c1ccccc1O` as the compound, how does the Potency read?
The Potency was inconclusive: 11.2 µM [inhibitor, partial curve, poor fit].

With `COc1ccccc1-c1nnc(SCC(=O)Nc2cc(C)on2)o1` as the compound, how does the Potency read?
Its Potency is inconclusive: 7.94 µM [inhibitor, partial curve, poor fit].

With `CC1=CC(C)(C)N(S(=O)(=O)c2ccc(C)cc2)c2cc(C)ccc21` as the compound, how does the Potency read?
The Potency was inconclusive: 0.501 µM [inhibitor, full curve, poor fit].

Which Potency does the source give for `COc1ccc(-c2[nH]ncc2CN(C)C(C)c2ccon2)cc1F` (stereo not drawn) here?
The Potency was inconclusive: 2.51 µM [inhibitor, partial curve, poor fit].

Which Potency does the source give for `COc1ccc(OC)c(C2C(C(=O)Nc3ccccc3OC)=C(C)Nc3c(C(=O)Nc4ccc(F)cc4)cnn32)c1` (stereo not drawn) here?
Its Potency is “inactive”.

For `CC(Nc1ccc(Br)cn1)c1cc(Cl)ccc1O` (stereo not drawn), which Potency is on record?
Its Potency is inconclusive: 11.2 µM [inhibitor, single point].

Which Potency does the source give for `Cc1ccc(Cn2c(C(CO)Nc3nc(-c4ccc(Cl)c([N+](=O)[O-])c4)cs3)nc3ccccc32)cc1` (stereo not drawn) here?
The Potency was inconclusive: 10 µM [inhibitor, single point].

For `O=C(NC(=S)NN1CCCCC1c1cccnc1)c1ccc(Cl)cc1Cl` (stereo not drawn), which Potency is on record?
Its Potency is inconclusive: 10 µM [inhibitor, partial curve].

With `Cc1ccc(Oc2ccc(NC(=O)Cn3ccsc3=N)cc2)cc1` as the compound, how does the Potency read?
Its Potency is inconclusive: 12.6 µM [inhibitor, single point].

Which Potency does the source give for `COc1ccc(NS(=O)(=O)c2ccc3oc(Nc4ccc5c(c4)OCCO5)nc3c2)cc1` here?
Its Potency is inconclusive: 7.94 µM [inhibitor, partial curve, poor fit].

For `CC(NC(=O)CSc1nnc(COc2ccccc2)o1)c1ccccc1` (stereo not drawn), which Potency is on record?
The Potency was inconclusive: 7.08 µM [inhibitor, partial curve, poor fit].

With `Fc1ccccc1NC(=S)NNc1ncc(C(F)(F)F)cc1Cl` as the compound, how does the Potency read?
Its Potency is inconclusive: 11.2 µM [inhibitor, single point].

With `COc1ccc(S(=O)(=O)N2CC(O)CC2C(=O)Nc2cccnc2)cc1` (stereo not drawn) as the compound, how does the Potency read?
The Potency was inconclusive: 0.501 µM [inhibitor, full curve, poor fit].

With `COc1ccc(OCc2cccc(C(=O)Nc3ccc(CN4CCCCC4)cc3)c2)cc1` as the compound, how does the Potency read?
Its Potency is inconclusive: 20 µM [inhibitor, single point].

With `CCOC(=O)C(=O)NNc1ccc(Cl)cc1` as the compound, how does the Potency read?
The Potency was inconclusive: 1.58 µM [inhibitor, partial curve, poor fit].

For `Cc1ccc(S(=O)(=O)CCC(=O)Nc2nnc(CC(C)C)s2)cc1`, which Potency is on record?
The Potency was inconclusive: 11.2 µM [inhibitor, single point].

Which Potency does the source give for `CCOC(=O)C(C)On1c(-n2nc(C)cc2C)nc2ccccc2c1=O` (stereo not drawn) here?
Its Potency is inconclusive: 28.2 µM [inhibitor, single point].

For `CCOC(=O)c1c(NC(=O)/C=C/C(=O)O)sc(C)c1-c1ccc(C)c(C)c1`, which Potency is on record?
The Potency was inconclusive: 15.8 µM [inhibitor, partial curve, poor fit].

Which Potency does the source give for `O=C(NC(=S)N1CCN(c2ccccc2)CC1)c1c(F)cccc1F` here?
Its Potency is inconclusive: 3.98 µM [inhibitor, partial curve].

With `COc1cccc(NC(=O)C(NCCc2ccc(S(N)(=O)=O)cc2)c2ccccc2)c1` (stereo not drawn) as the compound, how does the Potency read?
The Potency was inconclusive: 4.47 µM [inhibitor, full curve, poor fit].

With `CCOC(=O)C(C(C)=O)c1c(Br)c(O)c(O)c2c(C(=O)c3ccc(C)cc3)coc12` (stereo not drawn) as the compound, how does the Potency read?
Its Potency is inconclusive: 11.2 µM [inhibitor, partial curve, poor fit].

With `O=C(CN1c2ccccc2Sc2ccccc21)NNC(=O)Nc1ccc(Cl)c(Cl)c1` as the compound, how does the Potency read?
Its Potency is inconclusive: 28.2 µM [inhibitor, single point].

With `N#Cc1ccc(C(=O)Nc2nnc(-c3cccs3)o2)cc1` as the compound, how does the Potency read?
Its Potency is inconclusive: 8.91 µM [inhibitor, partial curve, poor fit].

For `O=C(O)CCC(=O)c1ccc2c(c1)OCCO2`, which Potency is on record?
Its Potency is “inactive”.

With `Cc1ccc(NC(=S)N2CCC(c3ccccc3)C2)c(Cl)c1` (stereo not drawn) as the compound, how does the Potency read?
Its Potency is inconclusive: 31.6 µM [inhibitor, single point].

Which Potency does the source give for `NNC(=O)c1ccc([N+](=O)[O-])c(CS(=O)(=O)c2ccc(Cl)cc2)c1` here?
Its Potency is inconclusive: 28.2 µM [inhibitor, single point].

Which Potency does the source give for `Nc1ccccc1Sc1nc2ccccc2[nH]1` here?
The Potency was inconclusive: 17.8 µM [inhibitor, single point].

With `CCN1c2cc(C)ccc2-n2cccc2C12CCN(C(=O)Nc1cc(OC)c(OC)c(OC)c1)CC2` as the compound, how does the Potency read?
Its Potency is “inactive”.

With `Cc1csc(NC(=O)CSc2nnc(-c3ccoc3C)o2)n1` as the compound, how does the Potency read?
The Potency was inconclusive: 31.6 µM [inhibitor, single point].

With `CC(=O)OC1COC(N2CCc3cc([N+](=O)[O-])ccc32)C(OC(C)=O)C1OC(C)=O` (stereo not drawn) as the compound, how does the Potency read?
The Potency was inconclusive: 12.6 µM [inhibitor, single point].

With `Cc1c(Nc2cc(Cl)c3nonc3c2[N+](=O)[O-])c(=O)n(-c2ccccc2)n1C` as the compound, how does the Potency read?
Its Potency is inconclusive: 7.94 µM [inhibitor, partial curve, poor fit].

With `CCSc1nc(-c2ccc(Cl)cc2)nc2c1Cc1c(CO)cnc(C)c1O2` as the compound, how does the Potency read?
The Potency was “inactive”.

With `CCC(C(=O)Nc1cccc(C(F)(F)F)c1)c1ccccc1` (stereo not drawn) as the compound, how does the Potency read?
The Potency was inconclusive: 15.8 µM [inhibitor, single point].

Which Potency does the source give for `Cc1occc1C(=O)N/N=C/c1ccc(OCc2ccccc2)cc1` here?
The Potency was “inactive”.

With `CC(=O)Nc1ccc(Nc2ccc(N3C(=O)CCCC3=O)cc2[N+](=O)[O-])cc1` as the compound, how does the Potency read?
Its Potency is inconclusive: 10 µM [inhibitor, partial curve].

For `COc1ccc(NC(=S)N(CCO)Cc2cc3c(C)cc(C)cc3[nH]c2=O)cc1`, which Potency is on record?
The Potency was inconclusive: 0.1 µM [inhibitor, full curve, poor fit].

With `Cc1ccc(C)c(NC(=S)N/N=C/C(C)c2ccccc2)c1` (stereo not drawn) as the compound, how does the Potency read?
Its Potency is inconclusive: 28.2 µM [inhibitor, single point].

Which Potency does the source give for `Oc1ccc2ccccc2c1C=NNc1ccccn1` here?
The Potency was inconclusive: 2.82 µM [inhibitor, full curve, poor fit].

Which Potency does the source give for `O=C(NCc1ccccn1)c1ccccc1OCc1ccc(F)cc1` here?
The Potency was “inactive”.

For `CCCOc1ccc(F)cc1-c1cc(C(=O)Nc2cc(OC)c(OC)c(OC)c2)[nH]n1`, which Potency is on record?
Its Potency is inconclusive: 10 µM [inhibitor, single point].

For `O=C(Nc1c(C(=O)Nc2cccc(C(F)(F)F)c2)oc2ccccc12)c1cc(=O)c2ccccc2o1`, which Potency is on record?
Its Potency is “inactive”.

Source: PubChem BioAssay AID624418 (National Center for Advancing Translational Sciences (NCATS), 2012)
